# In the supplement of paper PMC7826260:
# This is one part of the list. One pool of 16,384 single-stranded DNAs met each Rep nickase domain in vitro (1 h at 37 °C, 3 µM enzyme); the outer parts of the 90-letter strands are left off. Uncut reads are compared with the no-enzyme pool on a log2 scale; uncut sequences lie near 0, cut ones below; no hit call is given. Shares of all reads are compared; uncut strands gain when others are lost, and binding without cutting may add a little.
# Test system: T1, Rep nickase domain of Muscovy duck circovirus
# T1 sequence (Rep 1-111, printed without the tag): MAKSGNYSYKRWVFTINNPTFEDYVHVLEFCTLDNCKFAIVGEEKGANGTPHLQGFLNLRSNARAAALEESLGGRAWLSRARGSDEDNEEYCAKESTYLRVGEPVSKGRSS
# Assay: uncleaved DNA left, log2 of reads against the no-enzyme library (log2 ratio); higher = less cleavage (more negative = more Rep cleavage of the k-mer); sequences stand for … in CTCGTCCG…ACCGGAGA
# Protocol: (§1)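 A pool of 90-nt single-stranded DNAs with seven random bases just before the constant AC of the nick site (name = the seven bases) was cut by 3 µM recombinant His6-SUMO-tagged Rep nickase domain (300 nM DNA, 50 mM HEPES pH 8.0, 50 mM NaCl, 1 mM MnCl2, 1 h, 37 °C, three replicates). Uncut DNA was amplified and sequenced.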
row,Sequence,uncleaved DNA left (log2)
1,ATACGCG,0.00736
2,TCGACTG,0.0561
3,TAAGACA,0.032
4,GTCTCGC,0.111
5,CGGGTAA,-0.0132
6,CTGGCAT,-0.0596
7,CATTATG,0.0658
8,GGGCTAG,0.172
9,ATGTAAA,0.0983
10,GTGGTCC,-0.00126
11,TAAGACT,0.176
12,GTGCGTG,0.0231
13,CTGAACG,0.149
14,AACTCGC,0.0429
15,TAGGAGT,-0.0907
16,CAAGTCT,-0.0205
17,TGTGCCT,-0.027
18,TCGTCCC,0.0539
19,CTCCTGC,0.036
20,CACGATC,0.138

row,Sequence,uncleaved DNA left (log2)
1,ATGGGAC,0.0932
2,ATGCTGC,-0.0178
3,AGACTAT,0.117
4,TCGGCGA,-0.204
5,TATTGAC,0.0105
6,CCCTCAC,0.0712
7,CGTTGGT,-0.186
8,ATCCCGA,0.0742
9,TGACATG,0.115
10,CAATTGT,-0.819
11,TACTCCG,-0.0164
12,GTGAGCA,0.118
13,GGAGTCT,0.109
14,GCAGAGG,0.106
15,CGGACGT,0.0254
16,CACTCCA,-0.143
17,TGACCCC,0.0717
18,TATACAC,-0.036
19,GTTCACA,0.0318

# Test system: T2, Rep nickase domain of banana bunchy top virus
# T2 sequence (Rep 1-94, printed without the tag): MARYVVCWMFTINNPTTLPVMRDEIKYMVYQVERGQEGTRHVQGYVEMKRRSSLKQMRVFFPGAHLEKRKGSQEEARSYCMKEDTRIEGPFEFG
# Assay: as above
# Protocol: as §1
row,Sequence,uncleaved DNA left (log2)
1,ATACGCG,0.0396
2,TCGACTG,0.121
3,TAAGACA,0.0104
4,GTCTCGC,0.0815
5,CGGGTAA,0.0227
6,CTGGCAT,-0.0393
7,CATTATG,0.023
8,GGGCTAG,0.183
9,ATGTAAA,0.0966
10,GTGGTCC,-0.119
11,TAAGACT,0.169
12,GTGCGTG,0.0238
13,CTGAACG,0.0666
14,AACTCGC,-0.00705
15,TAGGAGT,-0.0706
16,CAAGTCT,-0.051
17,TGTGCCT,-0.129
18,TCGTCCC,-0.0525
19,CTCCTGC,-0.123
20,CACGATC,0.0241

row,Sequence,uncleaved DNA left (log2)
1,ATGGGAC,0.133
2,ATGCTGC,0.0085
3,AGACTAT,0.098
4,TCGGCGA,-0.199
5,TATTGAC,0.00895
6,CCCTCAC,-0.094
7,CGTTGGT,0.143
8,ATCCCGA,0.00112
9,TGACATG,-0.00566
10,CAATTGT,-0.149
11,TACTCCG,-0.132
12,GTGAGCA,0.176
13,GGAGTCT,0.00486
14,GCAGAGG,0.11
15,CGGACGT,-0.0153
16,CACTCCA,-0.177
17,TGACCCC,0.0611
18,TATACAC,0.0224
19,GTTCACA,0.155

# Test system: T3, Rep nickase domain of cabbage leaf curl virus
# T3 sequence (Rep 1-116, printed without the tag): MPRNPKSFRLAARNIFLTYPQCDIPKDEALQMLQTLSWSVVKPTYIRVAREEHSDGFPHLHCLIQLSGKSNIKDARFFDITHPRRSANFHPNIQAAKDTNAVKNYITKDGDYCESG
# Assay: as above
# Protocol: as §1
row,Sequence,uncleaved DNA left (log2)
1,ATACGCG,-0.352
2,TCGACTG,0.0174
3,TAAGACA,-0.872
4,GTCTCGC,0.201
5,CGGGTAA,0.473
6,CTGGCAT,0.294
7,CATTATG,-0.818
8,GGGCTAG,0.987
9,ATGTAAA,-0.0154
10,GTGGTCC,0.316
11,TAAGACT,-2.09
12,GTGCGTG,-0.238
13,CTGAACG,-0.0569
14,AACTCGC,-0.586
15,TAGGAGT,0.302
16,CAAGTCT,-1.97
17,TGTGCCT,-0.00972
18,TCGTCCC,0.223
19,CTCCTGC,-0.507
20,CACGATC,0.0953

row,Sequence,uncleaved DNA left (log2)
1,ATGGGAC,0.868
2,ATGCTGC,-0.0229
3,AGACTAT,0.607
4,TCGGCGA,-0.702
5,TATTGAC,-0.198
6,CCCTCAC,0.157
7,CGTTGGT,-0.0773
8,ATCCCGA,-0.37
9,TGACATG,0.136
10,CAATTGT,-3.87
11,TACTCCG,-1.02
12,GTGAGCA,0.434
13,GGAGTCT,0.633
14,GCAGAGG,-0.00967
15,CGGACGT,0.67
16,CACTCCA,-0.158
17,TGACCCC,0.732
18,TATACAC,0.256
19,GTTCACA,0.353

# Test system: T4, Rep nickase domain of chickpea chlorotic dwarf virus
# T4 sequence (Rep 1-124, printed without the tag): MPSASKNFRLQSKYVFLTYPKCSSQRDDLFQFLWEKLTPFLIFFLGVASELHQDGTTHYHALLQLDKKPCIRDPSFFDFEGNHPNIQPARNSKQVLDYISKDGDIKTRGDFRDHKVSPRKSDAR
# Assay: as above
# Protocol: as §1
row,Sequence,uncleaved DNA left (log2)
1,ATACGCG,0.951
2,TCGACTG,0.765
3,TAAGACA,-2.41
4,GTCTCGC,0.732
5,CGGGTAA,0.829
6,CTGGCAT,1.16
7,CATTATG,-0.445
8,GGGCTAG,1.97
9,ATGTAAA,-0.0875
10,GTGGTCC,0.808
11,TAAGACT,-2.26
12,GTGCGTG,0.0282
13,CTGAACG,0.318
14,AACTCGC,-0.871
15,TAGGAGT,0.558
16,CAAGTCT,-3
17,TGTGCCT,-0.645
18,TCGTCCC,0.00762
19,CTCCTGC,-0.7
20,CACGATC,-0.28

row,Sequence,uncleaved DNA left (log2)
1,ATGGGAC,1.96
2,ATGCTGC,0.52
3,AGACTAT,0.897
4,TCGGCGA,-0.422
5,TATTGAC,-0.433
6,CCCTCAC,-0.417
7,CGTTGGT,-0.228
8,ATCCCGA,-0.431
9,TGACATG,0.887
10,CAATTGT,-3.34
11,TACTCCG,-0.798
12,GTGAGCA,1.06
13,GGAGTCT,1.24
14,GCAGAGG,0.479
15,CGGACGT,1.75
16,CACTCCA,-2.24
17,TGACCCC,1.41
18,TATACAC,-0.514
19,GTTCACA,0.898

# Test system: T5, Rep nickase domain of faba bean necrotic yellows virus
# T5 sequence (Rep 1-98, printed without the tag): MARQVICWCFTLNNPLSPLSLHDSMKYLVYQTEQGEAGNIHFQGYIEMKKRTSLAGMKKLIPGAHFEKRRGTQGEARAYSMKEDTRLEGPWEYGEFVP
# Assay: as above
# Protocol: as §1
row,Sequence,uncleaved DNA left (log2)
1,ATACGCG,0.133
2,TCGACTG,0.129
3,TAAGACA,-0.0842
4,GTCTCGC,-0.032
5,CGGGTAA,-0.0597
6,CTGGCAT,-0.191
7,CATTATG,0.0899
8,GGGCTAG,0.19
9,ATGTAAA,0.171
10,GTGGTCC,0.00262
11,TAAGACT,0.0719
12,GTGCGTG,0.0121
13,CTGAACG,0.121
14,AACTCGC,-0.0121
15,TAGGAGT,-0.112
16,CAAGTCT,0.015
17,TGTGCCT,-0.00255
18,TCGTCCC,0.0637
19,CTCCTGC,-0.116
20,CACGATC,0.245

row,Sequence,uncleaved DNA left (log2)
1,ATGGGAC,-0.0519
2,ATGCTGC,0.0617
3,AGACTAT,0.0975
4,TCGGCGA,0.0237
5,TATTGAC,-0.0396
6,CCCTCAC,0.144
7,CGTTGGT,0.0734
8,ATCCCGA,0.0722
9,TGACATG,-0.0068
10,CAATTGT,-0.113
11,TACTCCG,-0.0155
12,GTGAGCA,0.148
13,GGAGTCT,-0.0695
14,GCAGAGG,0.143
15,CGGACGT,-0.102
16,CACTCCA,0.0123
17,TGACCCC,0.0673
18,TATACAC,0.07
19,GTTCACA,-0.115
